# Assay results: the supplement of paper PMC8728848
# The list shows a part of the results.
# Assays:
# Test in all cases: glycan array binding signal (z-score within array); higher = stronger binding
# Conditions in all cases: glycan notation: IUPAC condensed, linker removed
# [1] = biological target: Neu5Ac(a2-6)Gal(b1-4)GlcNAc(b1-6)[Gal(b1-3)GlcNAc(b1-3)]Gal(b1-4)Glc
# In short: (§1)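 Columns mapping to the same glycan were averaged after glycan names were converted to IUPAC-condensed notation. The data come from 3228 arrays in the Consortium for Functional Glycomics database, limited to those with an available protein sequence. Binding is reported as a within-array Z-score averaged across arrays of one protein sequence and across linkers.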
# [2] = biological target: Neu5Ac(a2-6)Gal(b1-4)GlcNAc(b1-6)[Gal(b1-3)]GalNAc
# In short: as §1
# [3] = biological target: Neu5Ac(a2-6)Gal(b1-4)GlcNAc6S
# In short: as §1
# [4] = biological target: Neu5Ac(a2-6)GalNAc
# In short: as §1
# [5] = biological target: Neu5Ac(a2-6)GalNAc(b1-4)GlcNAc
# In short: as §1
# [6] = biological target: Neu5Ac(a2-6)GalNAc(b1-4)GlcNAc6S
# In short: as §1
# [7] = biological target: Neu5Ac(a2-6)GlcNAc(b1-4)GlcNAc
# In short: as §1
# [8] = biological target: Neu5Ac(a2-6)GlcNAc(b1-4)GlcNAc(b1-4)GlcNAc
# In short: as §1
# [9] = biological target: Neu5Ac(a2-8)Neu5Ac
# In short: as §1
# [10] = biological target: Neu5Ac(a2-8)Neu5Ac(a2-3)Gal(b1-3)GalNAc(b1-4)[Neu5Ac(a2-3)]Gal(b1-4)Glc
# In short: as §1
# [11] = biological target: Neu5Ac(a2-8)Neu5Ac(a2-3)Gal(b1-3)GalNAc(b1-4)[Neu5Ac(a2-8)Neu5Ac(a2-3)]Gal(b1-4)Glc
# In short: as §1
# [12] = biological target: Neu5Ac(a2-8)Neu5Ac(a2-3)Gal(b1-4)Glc
# In short: as §1
# [13] = biological target: Neu5Ac(a2-8)Neu5Ac(a2-3)Gal(b1-4)GlcNAc
# In short: as §1
# [14] = biological target: Neu5Ac(a2-8)Neu5Ac(a2-3)[Gal(b1-3)GalNAc(b1-4)]Gal(b1-4)Glc
# In short: as §1
# [15] = biological target: Neu5Ac(a2-8)Neu5Ac(a2-3)[GalNAc(b1-4)]Gal(b1-4)Glc
# In short: as §1
# [16] = biological target: Neu5Ac(a2-8)Neu5Ac(a2-8)Neu5Ac
# In short: as §1
# [17] = biological target: Neu5Ac(a2-8)Neu5Ac(a2-8)Neu5Ac(a2-3)Gal(b1-4)Glc
# In short: as §1
# [18] = biological target: Neu5Ac(a2-8)Neu5Ac(a2-8)Neu5Ac(a2-3)[Gal(b1-3)GalNAc(b1-4)]Gal(b1-4)Glc
# In short: as §1
# [19] = biological target: Neu5Ac(a2-8)Neu5Ac(a2-8)Neu5Ac(a2-3)[GalNAc(b1-4)]Gal(b1-4)Glc
# In short: as §1
# [20] = biological target: Neu5Ac(a2-8)Neu5Ac(a2-8)Neu5Ac(a2-8)Neu5Ac(a2-3)[GalNAc(b1-4)]Gal(b1-4)Glc
# In short: as §1
# [21] = biological target: Neu5Ac(a2-8)Neu5Gc(a2-3)Gal(b1-4)GlcNAc
# In short: as §1
# [22] = biological target: Neu5Ac(b2-6)Gal(b1-4)GlcNAc
# In short: as §1
# [23] = biological target: Neu5Ac(b2-6)GalNAc
# In short: as §1
# [24] = biological target: Neu5Ac9Ac(a2-3)Gal(b1-3)GlcNAc
# In short: as §1
# [25] = biological target: Neu5Ac9Ac(a2-3)Gal(b1-4)GlcNAc
# In short: as §1
# [26] = biological target: Neu5Ac9Ac(a2-6)Gal(b1-4)GlcNAc
# In short: as §1
# [27] = biological target: Neu5Gc(a2-3)Gal(b1-3)GlcNAc
# In short: as §1
# [28] = biological target: Neu5Gc(a2-3)Gal(b1-3)[Fuc(a1-4)]GlcNAc
# In short: as §1
# [29] = biological target: Neu5Gc(a2-3)Gal(b1-4)Glc
# In short: as §1
# [30] = biological target: Neu5Gc(a2-3)Gal(b1-4)GlcNAc
# In short: as §1
# [31] = biological target: Neu5Gc(a2-3)Gal(b1-4)GlcNAc(b1-3)Gal(b1-4)GlcNAc(b1-2)Man(a1-3)[Neu5Gc(a2-3)Gal(b1-4)GlcNAc(b1-3)Gal(b1-4)GlcNAc(b1-2)Man(a1-6)]Man(b1-4)GlcNAc(b1-4)GlcNAc
# In short: as §1
# [32] = biological target: Neu5Gc(a2-3)Gal(b1-4)[Fuc(a1-3)]GlcNAc
# In short: as §1
# [33] = biological target: Neu5Gc(a2-6)Gal(b1-4)GlcNAc
# In short: as §1
# [34] = biological target: Neu5Gc(a2-6)GalNAc
# In short: as §1
# [35] = biological target: Neu5Gc(a2-8)Neu5Ac(a2-3)Gal(b1-4)GlcNAc
# In short: as §1
# [36] = biological target: Neu5Gc(a2-8)Neu5Gc(a2-3)Gal(b1-4)GlcNAc
# In short: as §1
# [37] = biological target: Neu5Gc(a2-8)Neu5Gc(a2-3)Gal(b1-4)GlcNAc(b1-3)Gal(b1-4)GlcNAc
# In short: as §1
# [38] = biological target: Neu5Gc(a2-8)Neu5Gc(a2-6)Gal(b1-4)GlcNAc
# In short: as §1
# [39] = biological target: Neu5Gc(b2-6)Gal(b1-4)GlcNAc
# In short: as §1
binder,measurement,setting,value
BTL (Bryothamnion triquetrum) (protein) ADPICGSSGYSCTTPAILTPKSPGSFPSGYSKVIVTGVGGSYSVYIHRPDGFKVYKASEGGCASFGSYSGGGNSEVGKYGSGGTVVAVACK,glycan array binding signal (z-score),[1],-0.204
same,glycan array binding signal (z-score),[2],-0.175
same,glycan array binding signal (z-score),[3],-0.242
same,glycan array binding signal (z-score),[4],-0.3
same,glycan array binding signal (z-score),[5],-0.28
same,glycan array binding signal (z-score),[6],-0.292
same,glycan array binding signal (z-score),[7],-0.257
same,glycan array binding signal (z-score),[8],-0.259
same,glycan array binding signal (z-score),[9],-0.245
same,glycan array binding signal (z-score),[10],-0.211
same,glycan array binding signal (z-score),[11],-0.235
same,glycan array binding signal (z-score),[12],-0.281
same,glycan array binding signal (z-score),[13],-0.26
same,glycan array binding signal (z-score),[14],-0.191
same,glycan array binding signal (z-score),[15],-0.25
same,glycan array binding signal (z-score),[16],-0.236
same,glycan array binding signal (z-score),[17],-0.253
same,glycan array binding signal (z-score),[18],-0.259
same,glycan array binding signal (z-score),[19],-0.289
same,glycan array binding signal (z-score),[20],-0.275
same,glycan array binding signal (z-score),[21],-0.248
same,glycan array binding signal (z-score),[22],-0.201
same,glycan array binding signal (z-score),[23],-0.274
same,glycan array binding signal (z-score),[24],-0.208
same,glycan array binding signal (z-score),[25],-0.251
same,glycan array binding signal (z-score),[26],-0.259
same,glycan array binding signal (z-score),[27],-0.308
same,glycan array binding signal (z-score),[28],-0.207
same,glycan array binding signal (z-score),[29],-0.28
same,glycan array binding signal (z-score),[30],-0.26
same,glycan array binding signal (z-score),[31],-0.087
same,glycan array binding signal (z-score),[32],-0.251
same,glycan array binding signal (z-score),[33],-0.277
same,glycan array binding signal (z-score),[34],-0.264
same,glycan array binding signal (z-score),[35],-0.243
same,glycan array binding signal (z-score),[36],-0.269
same,glycan array binding signal (z-score),[37],-0.276
same,glycan array binding signal (z-score),[38],-0.296
same,glycan array binding signal (z-score),[39],-0.269
